Measurements: the supplement of paper PMC6531468
This is one part of the list. Read counts after selection give these values, which scatter widely. Scores sum up all selected molecules that hold the word; the word was not tested alone.

Tested on: IMP3 RRM1-2
Assay: 6-mer SELEX enrichment z-score vs GST control; IMP3 is the RNA-binding protein IGF2BP3; higher = more enriched by binding
Conditions: construct: RRM1-2 (1-163); SELEX round: R2
Method: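 SELEX-seq with GST-tagged IMP3 RRM1-2 (Met1-Asn163) and an N40 RNA pool, round 2. 6-mer enrichment z-score normalised to GST SELEX. RNA written as DNA (T = U).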

IMP3 RRM1-2, sequence (chain, as listed by the source): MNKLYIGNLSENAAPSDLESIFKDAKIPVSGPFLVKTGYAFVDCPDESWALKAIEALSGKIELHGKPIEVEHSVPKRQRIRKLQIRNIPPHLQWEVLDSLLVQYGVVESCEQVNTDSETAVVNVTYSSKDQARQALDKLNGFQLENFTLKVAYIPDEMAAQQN

Row | Sequence | 6-mer SELEX enrichment z-score
1 | AGCCGC | -0.098
2 | CGTTTG | 0.102
3 | AAGGTT | -0.094
4 | TGTCCA | 0.009
5 | CCGCTT | -0.076
6 | TATTAT | 0.377
7 | CTCCCT | 0.044
8 | GTACCA | -0.146
9 | AATGAT | -0.924
10 | GTTCGG | 0.393
11 | AGCGGA | -0.538
12 | GTGAGA | -0.597
13 | GTAGCT | 0.247
14 | TTACCG | -0.354
15 | TTAGTC | 0.433
16 | GGGGAC | -0.234
17 | CTAGTA | 0.124
18 | CACGTT | 0.22
19 | GGCCGC | -0.002
20 | CTTGGG | 0.462

Row | Sequence | 6-mer SELEX enrichment z-score
21 | TTCACA | 2.29
22 | AACATA | 1.77
23 | TACAAA | -0.05
24 | AGAGTA | -0.384
25 | ATCCGA | -0.83
26 | GAGAAC | -1.21
27 | AACAAC | 0.911
28 | AGGAGC | -0.111
29 | CGTGTC | 0.045
30 | GTCCCG | -0.281
31 | ATGACT | -0.37
32 | AGATAC | -0.489
33 | TGTACT | 0.136
34 | GTCGCA | 0.31
35 | TAATCC | -0.483
36 | AGCTCG | 0.208
37 | GCGTGC | 0.24
38 | CTAATC | 0.315
39 | TGTAGC | -0.014
40 | TGGGCG | 0.222
